Results reported in PubChem BioAssay AID1508623 (National Center for Advancing Translational Sciences (NCATS), 2021).
Hit rate of the full screen: of about 48,000 compounds, about 450 (0.94%) were called active. Roughly 19% stayed inconclusive and do not appear here. Calls come from the whole dose curve; as a rule, active = well fitted inhibition curve with a large enough effect; inconclusive = small, poorly fitted or top-dose-only effect; inactive = no such curve, though single readings can be large or run the other way. The list shows a part of the results.

experiment: Primary qHTS for Identification of Small Molecule Inhibitors of Huntingtin Promoter Activity; conditions: HEK293 HTT promoter firefly luciferase reporter (activity 0% = vehicle and -100% = no light), 24 h; series mostly up to 57.5 µM; activity change, negative = inhibition: at the top concentration; note: nearly all actives have a fitted effect of over 50% in size
Excerpt: Assay Provider: Russell L. Margolis M.D.
Department Neurology, Johns Hopkins University School of Medicine, Baltimore, MD
Huntington's Disease (HD) is a neurodegenerative disorder caused by a CAG repeat expansion in exon 1 of huntingtin (HTT). While there are currently no disease-modifying treatments for HD, recent efforts have focused on development of nucleotide-based therapeutics to lower HTT expression. As an alternative to siRNA or oligonucleotide methods, we hypothesized that suppression of HTT expression might be accomplished by small molecules that either (1) directly decrease HTT expression by suppressing HTT promoter activity or (2) indirectly decrease HTT expression by increasing the promoter activity of HTT-AS, the gene antisense to HTT that appears to inhibit expression of HTT.
We developed and employed a high throughput screen for modifiers of HTT and HTT-AS promoter activity using luminescent reporter HEK293 cells; of the 52,041 compounds tested, we identified 898 replicable hits. We used a rigorous stepwise approach to assess compound toxicity and the capacity of the compounds to specifically lower huntingtin protein in 5 different cell lines, including HEK293 cells, HD lymphoblastoid cells, mouse primary neurons, HD iPSCs differentiated into cortical-like neurons, and HD hESCs. We found no compounds which were able to lower huntingtin without lowering cell viability in all assays, though the potential efficacy of a few compounds at non-toxic doses could not be excluded.
SEQUENCE No. (1, 2, 3, etc.); […] (e.g., Cells, Incubation, Reagent, etc.); VALUE and DESCRIPTION.
1; Reagent; 4 uL; 2,500 Hek293 luciferase reporter cells per wells
3; Compound; 23 nL; Control inhibitor / compound library
5; Reagent; 2.5 uL; Firefly Luc reagent; Dual-Glo Luciferase Reporter Assay System (Promega)
6; Time; 10 min; room temperature incubation
7; Detection; Luminescence; FLuc
NOTES (numbers refer to sequence above)
1; High-throughput screening, measuring luminescence from a Hek293 luciferase reporter, was performed in 1,536 well white-walled tissue-culture treated plates. 2,500 cells were plated in 4 µL of Opti-MEM per well using a Multidrop Combi Reagent Dispenser (ThermoFisher).
2; Assay plates were cultured for 24 hours.
3; Control inhibitor (PTC124; final concentration of 50 uM) and compound library (at final concentrations of 460 nM - 57.5 uM) were added to the assay plate using the Kalypsis Pintool Robotic System equipped with 1536 pinheads.
4; Cells were then incubated for 24 hours at 37 degrees C prior to luminescence measurements.
5; In all cases, luminescence was measured using the Dual-Glo Luciferase Reporter Assay System (Promega) following the manufacturer's instructions.
6; Room temperature incubation.
7; Luminescence signal was obtained using the PerkinElmer ViewLux plate reader. Results were normalized to vehicle control (0% activity) and zero RLU (-100% activity).

Activity change, negative = inhibition, inactive:
Cc1ccnc2c1NC(=O)c1cccnc1N2C1CC1 -1.05%
O=S(=O)(c1ccc(-c2cc(C(F)(F)F)on2)s1)N1CCN(c2ccc(F)cc2)CC1 -13.9%
CN(C)CCC=C1c2ccccc2CCc2ccccc21 -7.04%
COc1ccc(NC(=O)C2CCCN(c3ncnc4c3nc3n4CCCCC3)C2)c(OC)c1 (stereo unspecified) 23.5% [at 11.5 µM]
Cc1cc(Br)ccc1NC(=O)Cn1cc(S(=O)(=O)N2CCN(c3ccccc3F)CC2)c2ccccc2c1=O 1.51%
Cc1ccc(C)c(N2CCN(C(=O)CCc3nnc4n(CC(C)C)c(=O)c5ccccc5n34)CC2)c1 0.144%
CCOc1ccc(CNC(=O)c2cnc3sc(N4CCOCC4)nn3c2=O)cc1 -5.11%
CCn1cc(C(=O)N2CCN(c3cccc(Cl)c3)CC2)c2cc(OC)c(OC)cc2c1=O -28%
CC(=O)c1ccc(Nc2nc3c(S(=O)(=O)c4ccccc4)nnn3c3ccc(Cl)cc23)cc1 -21.2%
CCSc1oc(-c2ccco2)nc1S(=O)(=O)c1ccc(Br)cc1 -29.4%
Cc1ccc(NC(=O)Cn2c(=O)c3ccccc3n3nncc23)cc1 -20.2%
Cc1[nH]c(=O)c(C#N)cc1-c1ccncc1
CCN1c2ccccc2-c2nc(SCC(=O)NCc3ccccc3)ncc2S1(=O)=O -30.7%
COC(=O)CCNC(=O)NC(CCC(C)C)c1c(-n2cccc2)sc2c1CCN(C)C2 (stereo unspecified) -12%
COc1ccccc1NC(=O)Cn1c(=O)n(CCC(=O)NCC2CCCO2)c(=O)c2cc(OC)c(OC)cc21 (stereo unspecified) -10.1%
CCC(=O)N1CCc2cc(S(=O)(=O)NCCC(=O)Nc3cc(C)ccc3OC)ccc21 -26%
Cc1ccc2nc(-c3ccc(O)cc3)c(Nc3ccc(Cl)cc3)n2c1 -13.6%
CCCN(CCC)C(=O)Cn1c(=O)n(-c2ccc(Cl)cc2)c(=O)c2c3c(sc21)CCCCC3 -5.29%
Cc1ccc(-c2nn(-c3ccc(F)cc3)c3c2cnc2cc(F)c(F)cc23)cc1 -13.6%
CCCc1cc(=O)[nH]c(SCC(=O)N2CCN(c3ccccc3OC)CC2)n1 -1.13%
CC(C)[C@H](CO)Nc1nc(Nc2cccc(Cl)c2)c2ncn(C(C)C)c2n1 -26.6%
Cc1ccccc1C(=O)Nc1ccc(OCc2cc(=O)n3ccccc3n2)cc1 4.09%
Cc1ccc(NC(=O)Cn2cc(S(=O)(=O)N3CCCC3)c(S(=O)(=O)N3CCCC3)c2)cc1F 7.83% [at 11.5 µM]
Cc1ccc(C)c(S(=O)(=O)c2nnn3c2nc(Nc2ccc(C)c(C)c2)c2ccccc23)c1 -14.3%
COc1cccc(NC(=O)CCN2CCN(c3ccccc3)CC2)c1 -5.42%
COc1cccc(C(=O)NCC(c2ccc(N(C)C)cc2)N2CCc3ccccc32)c1 (stereo unspecified) -3.3%
Cn1cc(CCC(=O)NCc2ccc(Cl)cc2)c2ccccc21 -25.3%
CC1CCC(Nc2ncnc3onc(-c4ccc(F)cc4)c23)CC1 (stereo unspecified) -21.7%
O=C(O)c1c(-c2ccccc2)oc2ccc(OCc3ccc(Cl)c(Cl)c3)cc12 -16.8%
COc1cccc(-n2c(=O)c3c(C)c(C)sc3n(CC(=O)Nc3ccccc3OC)c2=O)c1 -7.25%
CCOc1cccc(C(=O)N(Cc2ccc(N(C)C)cc2)CC2CCCO2)c1 (stereo unspecified) -15.5%
CCOc1ccc(N(C(=O)c2ccccc2F)S(=O)(=O)c2ccc3c(c2)n(C)c(=O)n3C)cc1 18.2%
CCc1ccccc1NC(=O)N1CCC(CN2CCc3ccccc3C2)CC1 -20.8%
Cc1ccc(C(=O)CCC(=O)Nc2ccc(C)cc2C)cc1 3.02%
CC1CCN(S(=O)(=O)c2ccc3c(ccc(=O)n3CC(=O)Nc3ccc(C(C)C)cc3)c2)CC1 -28.1%
Nc1nc(SCC(=O)Nc2cccc(C(F)(F)F)c2)n[nH]1 -19.3%
CCOC(=O)c1c(-c2ccc(C)cc2)csc1NC(=O)c1cc(-c2ccc(Cl)cc2)on1 -11.9%
CS(=O)(=O)N(CC(=O)Nc1ccc(Br)cc1)c1ccccc1Br -20.6%
CNC(=O)Cn1nc(-c2ccc(Cl)cc2)c2ccccc2c1=O -15.5% [at 11.5 µM]
COc1ccc(NC(=O)CSC2=Nc3ccccc3C3=NC(CCC(=O)NCc4ccc(F)cc4)C(=O)N23)cc1Cl (stereo unspecified) -18.5%
CCCCC(CC)CNC(=O)CN(C)S(=O)(=O)c1ccc2c(c1)c(=O)n(C)c(=O)n2C (stereo unspecified) -8.29%
Cc1nn(C)c2c1c(-c1ccccc1)cc(=O)n2Cc1ccccc1Cl -0.216%
COc1cccc(N2CCN(C(=O)C3CCN(S(=O)(=O)c4cccc5nonc45)CC3)CC2)c1 -20.7%
Cc1ccc(CN(C(=O)COc2ccc(Cl)cc2)c2ccccn2)o1 -13.2%
Cc1cc(NC(=O)CCNS(=O)(=O)c2ccc3c(c2)CCCC(=O)N3)ccc1Br -28%
COc1cccc(C(=O)Nc2cccc(NC(=O)c3ccc(Cl)cc3Cl)c2)c1 3.66%
CCCCN(C)C(=O)Cn1c(C2CC(=O)N(c3ccc(C)cc3)C2)nc2ccccc21 (stereo unspecified) -7.71%
CCC(C)Nc1sc(S(=O)(=O)CC)nc1S(=O)(=O)c1ccc(C)cc1 (stereo unspecified) -14.2%
CCOc1ccc(CNC(=O)CCCn2nc(C)c3sc4ccccc4c3c2=O)cc1 -0.969%
COC(=O)c1cc(S(=O)(=O)NCC2CCN(Cc3ccc(C)cc3)CC2)cn1C -15.2%
CCCOc1ccc(-c2nn(-c3ccccc3)cc2C2NC(=O)NC(C)=C2C(=O)OC)cc1 (stereo unspecified) -15.1%
CCc1ccc(C(=O)c2cn(CC(=O)Nc3cc(OC)ccc3OC)c3ccc(C)cc3c2=O)cc1 -13%
Cc1ccc(C)c(NC(=O)Cn2c(=O)nc(-c3ccccc3)c3ccccc32)c1 -13.6%
O=C(Nc1ccc(N2CCN(c3ccc(F)cc3)CC2)c(C(=O)O)c1)c1ccccc1F 2.96%
COc1ccc(C)cc1NC(=O)C1CCN(S(=O)(=O)c2ccc3c(c2)CCCN3C(C)=O)CC1 14.4%
CC1=C(C(=O)Nc2cccnc2)C(c2ccccc2)n2nc(SCc3ccccc3Cl)nc2N1 (stereo unspecified) -6.76%
CCOC(=O)c1ccc(NC(=O)CSc2nc3ccccc3c(=O)n2CCNC(C)=O)cc1 -13.1%
CCc1ccc(NC(=O)CN2C(=O)C(c3ccc(F)cc3)=NC2(C)C)cc1 -24.8%
Cc1ccc(CCNC(=O)Cn2ncc3c([nH]c4ccc(C)cc43)c2=O)cc1 -0.0773%
CCCCOc1ccc(Cn2c(=O)oc3ccc(C)cc32)cc1 -26%
CCCN(CCC)CCNC(=O)Cn1cc2c(n1)-c1c(oc(C(=O)N3CCCC3)c1C)CC2 -4.46%
O=C(CS(=O)(=O)c1cccc2nsnc12)Nc1ccc(F)cc1 -4.12%
COC(=O)c1cc(S(=O)(=O)NCC2CCN(Cc3ccc(F)cc3)CC2)c[nH]1 -25.6%
COCCNC(=O)CSc1nc2cc3c(cc2c(=O)n1CCCC(=O)NCc1ccc(OC)cc1)OCO3 -19.4%
COc1ccc(S(=O)(=O)N2CCN(c3ccc(Cl)c(Cl)c3)CC2)c2ccccc12 -12.8%
COCCNC(=O)c1ccc2c(c1)N(Cc1cc(C)ccc1C)C(=O)c1ccccc1S2(=O)=O -12.4%
OCCNC1CCCc2c1[nH]c1ccc(-c3ccccc3)cc21 (stereo unspecified) -8.7%
Cc1cccc(NC(=O)c2cc(-c3ccc4c(c3)OCCO4)on2)c1 -23.9%
Cc1ccc(NC(=O)CSc2nc3ccccc3nc2Cc2ccccc2)c(C)c1 -1.95%
COc1ccc(S(=O)(=O)Nc2nnc(CC(C)C)s2)cc1 -3.02%
CCOc1ccc(Cn2c(-c3ccc(OCC)c(OC)c3)nc3ccccc32)cc1OC 7.21%
CSc1ncc(C(=O)Nc2cccc(C)c2C)c(-c2ccccc2)n1 -12.9%
COc1ccc(CNC(=O)C2CCN(S(=O)(=O)c3ccc(F)cc3)CC2)cc1 -20%
Cc1ccc(O)c2ncccc12 4.48%
COC(=O)c1ccc2c(c1)N(Cc1cc(C)ccc1C)C(=O)c1ccccc1S2 -20.6%
CCN(c1ccccc1)S(=O)(=O)c1nnc(NC(=O)C(C)(C)C)s1 -16.1%
CCN1CCc2nc3sc(C(=O)c4ccccc4)c(N)c3cc2C1 -12.4%
CCOc1ccc2nc(N3CCCC(C(=O)NCCCOC)C3)sc2c1 (stereo unspecified) -3.82%
COC(=O)c1ccc(Cn2c(SCc3ccccc3F)nc3ccncc32)cc1 -8.65%
CCOc1ccc(CCNC(=O)Cn2c(=O)c3cccn3c3ccc(F)cc32)cc1OCC 0.188%
CC1C(=O)Nc2ccc(S(=O)(=O)NCc3ccc(N(C)C)cc3)cc2NC1=O (stereo unspecified) -1.48%
COc1cccc(C(=O)c2cn(CC(=O)Nc3cccc(C(F)(F)F)c3)c3nc(C)ccc3c2=O)c1 -24.5%
CCN(CC)S(=O)(=O)c1ccc2c(c1)nc(CN(C)C(=O)Nc1cccc(Cl)c1)n2C -17.7%
COc1ccc(Cn2c(CCC(=O)Nc3ccc(C)c(C)c3)nc3cccnc32)cc1 -24.3%
CCCN(CCC)C(=O)CN1C(=O)CSc2ccc(S(=O)(=O)N3CCC(C)CC3)cc21 -28.5%
CC(=O)N1CCc2cc(S(=O)(=O)NC(CC(C)C)C(=O)NCCc3ccc(C)cc3)ccc21 (stereo unspecified) -6.18%
CCOc1ccc(C2c3[nH]c4ccccc4c3CCN2C(=O)Cc2cccc(OCC)c2OCC)cc1 (stereo unspecified) -23.2%
Cc1ccccc1Cn1nnc2c(=O)[nH]c(C3CCN(C(=O)c4ccccc4)CC3)nc21 -2.39%
Cc1cn([C@H]2C[C@H](F)[C@@H](CO)O2)c(=O)[nH]c1=O -4.41%
COc1ccc(-c2nc3sc(CCNC(=O)c4cccc(C(F)(F)F)c4)c(C)n3n2)cc1 35.6%
CCOC(=O)c1c(S(=O)(=O)NCC(=O)Nc2ccc(C)c(Cl)c2)c(C)n(C)c1C -0.0508%
O=C(C=Cc1ccc(O)cc1)c1ccc(O)cc1O -9.71%
CSc1ncc(C(=O)NCc2ccccc2)c(-c2ccccc2)n1 -5.59%
COc1ccc(NC(=O)C2CCCN2S(=O)(=O)c2cccc3cccnc23)cc1OC (stereo unspecified) -10.3%
CC(C)(C)n1cnc2cc(NCc3ccccc3Cl)ccc21 13%
CC(C)Oc1ccc(CNC(=O)c2ccc(NC(=O)N3CCSc4ncccc43)cc2)cc1 -35.6%
